Test results as given in PMC6919601, “Identification of Plasmodium dipeptidyl aminopeptidase allosteric inhibitors by high throughput screening” (PLoS ONE, 2019).
The campaign covered roughly 110,000 compounds. About 230 (0.21%) showed an effect of 50% or more. The list shows a part of the results.

target: DPAP1 (Plasmodium falciparum, UniProt Q8IIJ9); experiment: primary screen, percent inhibition; read by cleavage of a fluorogenic dipeptide substrate; higher = more effect of the substance; design: species or system P. falciparum D10 trophozoite lysates; single well
Sequence (Q8IIJ9 whole entry, looked up): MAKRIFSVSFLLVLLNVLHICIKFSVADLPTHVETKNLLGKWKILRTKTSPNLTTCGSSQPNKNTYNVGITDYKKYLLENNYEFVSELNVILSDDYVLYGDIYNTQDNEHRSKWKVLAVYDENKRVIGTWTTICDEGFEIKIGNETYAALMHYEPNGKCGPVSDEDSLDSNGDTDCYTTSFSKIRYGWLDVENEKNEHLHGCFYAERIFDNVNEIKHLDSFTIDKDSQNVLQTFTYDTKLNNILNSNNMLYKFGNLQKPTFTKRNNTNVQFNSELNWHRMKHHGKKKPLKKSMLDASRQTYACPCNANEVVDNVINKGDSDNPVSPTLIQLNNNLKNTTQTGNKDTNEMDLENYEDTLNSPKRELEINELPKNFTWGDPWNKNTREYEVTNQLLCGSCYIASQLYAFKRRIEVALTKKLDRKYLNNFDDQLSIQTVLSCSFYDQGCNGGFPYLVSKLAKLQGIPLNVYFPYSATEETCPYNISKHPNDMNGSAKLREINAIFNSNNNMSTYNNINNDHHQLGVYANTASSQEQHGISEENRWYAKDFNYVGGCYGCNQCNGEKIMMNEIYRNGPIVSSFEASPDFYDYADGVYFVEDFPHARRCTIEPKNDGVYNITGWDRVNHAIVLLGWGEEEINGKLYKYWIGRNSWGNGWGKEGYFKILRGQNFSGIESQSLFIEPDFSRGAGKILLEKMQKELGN
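Note: 30 min substrate incubation versus DMSO and 10 µM JCP410 controls.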

Structure (SMILES)	% Inhibition @ 10 uM
CN(Cc1ccccc1)C(=O)c1nn(C)c2c1CSc1ccccc1-2	4.86%
Cc1nn(Cc2cccc3ccccc23)c(C)c1NC(=O)COc1ccc(F)cc1	-3.34%
Cc1cc(-c2nc3cc(N)ccc3o2)ccc1Br	6.4%
Cc1ccc(C(=O)Nc2ccc(Cc3ccc(NC(=O)c4ccc(C)o4)cc3)cc2)o1	0.727%
O=C(Cn1nnc(-c2cccc(C(F)(F)F)c2)n1)NC1CCCC1	2.99%
Cn1nnnc1SCCNCc1ccsc1	0.00706%
CN(C1CCCCC1)S(=O)(=O)N1CCCC(C(=O)NCc2ccccc2)C1 (stereo not drawn)	-0.232%
COc1ccc(N2C(=O)CC(N3CCN(C)CC3)C2=O)c(C)c1 (stereo not drawn)	-7.98%
COc1ccc(C2(O)CSC3=C(C#N)C(c4ccc(OC(C)C)cc4)CC(=O)N32)cc1OC (stereo not drawn)	9.18%
COC(=O)c1ccc(C(=O)Nc2cc(Cl)c(Cl)cc2Cl)cc1[N+](=O)[O-]	-0.546%
CN(Cc1ccccc1)S(=O)(=O)c1cccc2nsnc12	-5.57%
COc1ccc(S(=O)(=O)NCC(=O)Nc2ccc3c(c2)OCCO3)cc1OC	4%
Cc1ccc(/C=C2/NC(=O)N(Cc3ccc(F)cc3)C2=O)cc1	-7.25%
CC(C)c1ccc(NC(=O)C2CC=CCC2C(=O)O)cc1 (stereo not drawn)	6.4%
Cc1ccc(S(=O)(=O)N2C(=O)CCC2C(=O)NCCC23CC4CC(CC(C4)C2)C3)cc1 (stereo not drawn)	4.03%
O=C(Cn1ccn(Cc2ccccc2)c(=O)c1=O)NCCc1ccccc1	3.17%
Cc1ccccc1CNC(=O)c1cc2oc3ccccc3c2n1C	1.72%
COc1ccccc1CC(=N)NOC(=O)COc1ccc(Br)c(C)c1	-1.4%
CC(C)Cn1cc(C(=O)NCc2cccnc2)c2c3ccccc3n(C)c2c1=O	-5.85%
CN1C(=O)C(=CNc2cccc(Br)c2)C(=O)N(C)C1=O	-4.75%
Fc1ccc(Nc2nc(-c3ccc(Cl)cc3)cs2)cc1	-0.771%
O=C(Nc1ccc(Cl)cc1F)C1CC(=O)N(c2ccc(F)cc2)C1 (stereo not drawn)	-9.39%
CCN(CC)CCN(C)C1CC2CCC1C2 (stereo not drawn)	-0.0908%
COc1cc(C(=O)Nc2ccc(-c3nc4cc(C)ccc4o3)cc2C)cc(OC)c1OC	-4.03%
CCOC(=O)c1c(C2COc3ccccc3O2)csc1NC(=O)c1ccc(Cl)cc1 (stereo not drawn)	0.587%

Structure (SMILES)	% Inhibition @ 10 uM
Cn1c(=O)c2c(nc(SCC(=O)N3CCCCC3)n2C)n(C)c1=O	2.67%
CCOC(=O)C1=C(C)N(c2ccc(C)cc2)C(=O)/C1=C\c1ccc(C)cc1	-6.88%
CCC(=O)N(CCc1ccccc1)C1CC(=O)N(c2ccc(Cl)cc2)C1=O (stereo not drawn)	0.431%
CCOC(=O)c1c(C)nc(C)c(C(=O)OCC)c1-c1cccc([N+](=O)[O-])c1	3.98%
O=S1(=O)N(Cc2ccccc2F)CCCN1Cc1c(F)cccc1Cl	8.91%
Cc1cc(-c2ccc(Cl)cc2)c(C#N)c(N)n1	-2.35%
CC(C)CS(=O)(=O)C1=NSC2=NC(=O)/C(=C\c3ccc(O)c(Br)c3)C(=N)N21	-3.39%
O=C1CC(c2ccco2)CC(=O)C1=CNCC1NCCc2ccccc21 (stereo not drawn)	-6.35%
O=C1CCCC2=C1C(c1ccc(O)cc1)C1=C(CCCC1=O)O2	-5.46%
CN1CCN(c2nc(-c3ccncc3)nc3ccccc23)CC1	2.36%
Cc1ccc(NC(=O)C(C)N2C(=O)c3ccccc3C2=O)cc1 (stereo not drawn)	-1.42%
O=C(NCCc1ccccc1)C1CCCN(c2ncnc3c2sc2cccc(F)c23)C1 (stereo not drawn)	1.03%
COc1ccc(C(=O)C2=C(O)C(=O)N(Cc3ccco3)C2c2cccc(O)c2)cc1 (stereo not drawn)	5.15%
CCOC(=O)c1c(NC(=O)CSc2nnc(CNC(=O)c3ccco3)n2C)sc2c1CCC2	1.75%
CCOC(=O)c1c(C)[nH]c(C)c1S(=O)(=O)N1CCC(C(=O)N2CCN(C3CCCC3)CC2)CC1	1.9%
COc1nc(Cl)nc(Nc2ccccc2)n1	-3.66%
CCOC(=O)N1CCC(NC(=O)C2=CCN(S(=O)(=O)c3ccccc3)CC2)CC1	-3.35%
Cc1cc(O)c(C(=O)Cc2ccccc2)c(=O)n1C	4%
CCOCCCNC(=O)c1ccc(OC)cc1	2.27%
c1cc2c3c(ccc(CSCCc4ccncc4)c3c1)CC2	1.7%
Cn1c(=O)c2c(nc(CN3CCN(C(=O)c4ccco4)CC3)n2Cc2ccccc2)n(C)c1=O	1.02%
CC(C)c1ccc(C(=O)Nc2nnc(S(=O)(=O)N3CCCCC3)s2)cc1	-5.37%
O=C(CN1c2cccc3cccc(c23)S1(=O)=O)Nc1ccccc1F	3.42%
Cc1cc(C)c(C#N)c(SCC(=O)NCC(=O)O)n1	0.408%
C=CCn1c(SCC(=O)Nc2nnc(C)s2)nnc1-c1cccnc1	-1.18%

Structure (SMILES)	% Inhibition @ 10 uM
CC(C)c1ccc(CN2CCN(c3ccc([N+](=O)[O-])cc3)CC2)cc1	-0.0404%
Cc1nccn1C(=O)c1nn(C)c2c1COc1ccccc1-2	9.1%
CC(C)CC(=O)N1CCN(Cc2ccccc2F)CC1	10.5%
Clc1ccccc1-c1nnc(-c2ccccc2Cl)o1	2.41%
CCOc1ccccc1N1CCN(C(=O)/C=C/c2ccc3c(c2)OCO3)CC1	0.0538%
CCC1CCC(N2CCN(c3ccc(Cl)cc3)CC2)CC1 (stereo not drawn)	-0.0648%
CC(O)CN(Cc1cccc(Cl)c1Cl)CC(C)O (stereo not drawn)	-1.5%
CCOC(=O)N1CCN(C(=O)CSc2c3c(nc4cc(Cl)ccc24)CCCC3)CC1	-0.0115%
COc1ccc(OC)c(C2C3=C(O)CC(C)(C)CC3=NC(C)=C2C(=O)OCCOc2ccccc2)c1 (stereo not drawn)	15.8%
Cc1ccc(-n2c3c(c(=O)[nH]c2=O)C(NC(=O)c2ccccc2F)(C(F)(F)F)C(=O)N3)cc1 (stereo not drawn)	1.57%
O=c1ncn(-c2cccc(Cl)c2)c2ccccc12	-1.51%
CCN(CC)S(=O)(=O)c1ccc(NC(=O)CCc2ccccc2)cc1	-1.49%
O=C(NCC1CCCO1)c1ccc(C(=O)NCC2CCCO2)cc1 (stereo not drawn)	-12.1%
O=C(CCn1nc(-c2ccccc2)ccc1=O)N1CCN(Cc2ccccc2)CC1	-0.0542%
O=S(=O)(c1ccc(-c2ccc(S(=O)(=O)N3CCOCC3)cc2)cc1)N1CCOCC1	4.08%
CCOC(=O)N1CCC(/N=c2/c(N3CCC(Cc4ccccc4)CC3)c(O)c2=O)CC1	-3.21%
Fc1ccccc1-n1c(S)nnc1CN1CCSCC1	-1.37%
O=C(Nc1ccc(S(=O)(=O)NC2CCCCC2)cc1)c1ccc(Br)o1	1.89%
C/C(=N\c1ccc(/N=C(\C)C2=C(O)CC(C)(C)CC2=O)cc1)C1=C(O)CC(C)(C)CC1=O	3.46%
COc1ccccc1CNC(=O)C1CCC(C/N=c2/c(N3CCCC3)c(O)c2=O)CC1 (stereo not drawn)	4.4%
COc1ccccc1NC(=O)c1ccc(OC)c(OC)c1	1.41%
OCCN1CCN(C2Cc3ccccc3Sc3cc(Cl)c(F)cc32)CC1 (stereo not drawn)	-8.38%
NNC(=O)CCn1c2c(c3ccccc31)CCCCC2	4.22%
CC(NC(=O)C1CCC(CNS(=O)(=O)c2cccc3nsnc23)CC1)c1ccccc1 (stereo not drawn)	-2.25%
Cc1ccc(SCC(=O)Nc2ccc(C)c(C)c2)cc1	-0.413%

Structure (SMILES)	% Inhibition @ 10 uM
O=C(O)c1ccc(Br)c(S(=O)(=O)N2CCCCCC2)c1	0.526%
Cc1cc(Cl)ccc1-n1c(S)nnc1CCN1CCN(C)CC1	7.15%
CCOc1ccc(C(=O)Nc2sc3c(c2C#N)CCCC3)cc1	-4.4%
CCc1nc2ccccc2c(NC(=O)CN(C)C)c1C	0.266%
CC(C)C(=O)N1CCN(c2ccc(NC(=O)c3cccnc3Cl)cc2Cl)CC1	-1.61%
Cc1ccccc1C1CC(=O)NC2=C1C(=O)CC(c1ccccc1Cl)C2 (stereo not drawn)	0.205%
Cc1ccc(C)c(Cn2c(C(=O)O)c(CNCCC(C)C)c3ccccc32)c1	3.54%
N#Cc1ccccc1OCC(=O)N1CCN(C(=O)c2ccco2)CC1	0.0198%
CCc1cccc(NC(=O)C2CC=CCC2C(=O)O)c1 (stereo not drawn)	2.09%
Cc1ccnc(NC(=O)Nc2cn(C)c(=O)c3ccccc23)c1	5.15%
Oc1ccccc1C1=NC(c2ccc(Br)cc2)NC(c2ccccn2)C1 (stereo not drawn)	1.02%
CC(C)OCCCNC(=O)CCc1nc(-c2ccccc2F)no1	-2.19%
CCc1ccc(CN2CCN(C(=O)c3ccc(OC)c(OC)c3)CC2)cc1	-1.42%
CCOC(=O)c1sc(NC(=O)CSc2nc(N)cc(O)n2)nc1C	6.38%
CCCn1c2ccccc2c2cnn(CC(=O)NCc3ccc(C)cc3)c(=O)c21	-1.96%
CCOC(=O)c1c(C)n(C)c2ccc(OCc3ccccc3)cc12	0.968%
COC(=O)[C@]1(C#N)C(C)(C)[C@@]1(C#N)C(=O)OC	-2.66%
O=c1c2c3n(c4ccccc4c(=O)n3c3ccccc13)CC2	-5.46%
Cc1nn(CC(=O)NCc2ccccn2)c(=O)c2cc3sccc3n12	-1.58%
CCOc1ccccc1NC(=O)CC1Sc2ccccc2NC1=O (stereo not drawn)	-0.424%
N#Cc1c(-c2ccccc2Cl)c(C#N)c2nc3ccccc3n2c1N	21.6%
COc1ccc(OC)c(C2Nc3cccc4cccc(c34)N2)c1	0.751%
CC1CC(=O)C2=C(C1)OC(N)=C(C#N)C2c1ccc(-c2ccccc2)cc1 (stereo not drawn)	22.4%
COc1ccc(/C=C2\SC(=O)N(CN3CCCC3)C2=O)cc1	-3.26%
